57 compounds from article PMC4336329 (PLoS ONE, 2015) can be followed below.

In all, about 310,000 compounds went through this assay and about 2,200 (0.71%) showed an effect of 50% or more. The effect is printed as a negative number. The list shows a part of the results.

The target of this assay is human ether-à-go-go-related gene (hERG) potassium channel (human, UniProt Q12809). Nature of the assay: primary screen, population patch clamp on CHO cells stably expressing hERG.
human ether-à-go-go-related gene (hERG) potassium channel, sequence (Q12809 whole entry, looked up): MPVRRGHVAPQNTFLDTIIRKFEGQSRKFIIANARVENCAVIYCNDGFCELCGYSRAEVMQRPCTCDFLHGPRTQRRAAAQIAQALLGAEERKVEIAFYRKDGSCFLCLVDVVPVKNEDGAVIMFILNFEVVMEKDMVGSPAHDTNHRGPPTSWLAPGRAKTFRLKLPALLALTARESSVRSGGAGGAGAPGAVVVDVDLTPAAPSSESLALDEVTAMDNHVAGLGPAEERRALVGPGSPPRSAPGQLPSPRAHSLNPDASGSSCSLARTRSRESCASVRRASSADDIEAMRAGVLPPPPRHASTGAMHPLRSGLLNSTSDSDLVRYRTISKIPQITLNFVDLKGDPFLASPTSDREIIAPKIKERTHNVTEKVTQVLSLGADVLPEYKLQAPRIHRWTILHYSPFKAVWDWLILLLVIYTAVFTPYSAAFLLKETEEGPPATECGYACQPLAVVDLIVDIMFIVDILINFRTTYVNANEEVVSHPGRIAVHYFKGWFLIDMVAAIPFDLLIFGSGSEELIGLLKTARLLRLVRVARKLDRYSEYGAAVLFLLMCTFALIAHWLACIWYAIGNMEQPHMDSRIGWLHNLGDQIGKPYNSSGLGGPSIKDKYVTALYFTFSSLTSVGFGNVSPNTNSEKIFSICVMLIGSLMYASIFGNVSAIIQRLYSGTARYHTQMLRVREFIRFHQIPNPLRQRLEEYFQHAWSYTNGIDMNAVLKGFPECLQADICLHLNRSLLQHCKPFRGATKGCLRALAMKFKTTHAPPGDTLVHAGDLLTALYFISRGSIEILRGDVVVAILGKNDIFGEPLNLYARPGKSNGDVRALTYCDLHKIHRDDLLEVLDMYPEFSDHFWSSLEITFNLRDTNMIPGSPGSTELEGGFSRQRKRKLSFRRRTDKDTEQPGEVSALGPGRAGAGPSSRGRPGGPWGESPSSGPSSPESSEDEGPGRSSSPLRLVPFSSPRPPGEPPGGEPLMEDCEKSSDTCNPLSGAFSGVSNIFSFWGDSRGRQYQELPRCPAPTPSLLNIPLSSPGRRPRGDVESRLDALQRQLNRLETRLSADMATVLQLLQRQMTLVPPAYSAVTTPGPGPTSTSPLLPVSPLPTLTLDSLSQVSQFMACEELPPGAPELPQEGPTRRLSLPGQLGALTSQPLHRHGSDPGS
Turning to `COc1ccc(NC(=O)C2CCCN2S(=O)(=O)c2cccc3nsnc23)c(OC)c1` (stereo not drawn), the “hERG current change (%, negative = inhibition) at 1uM” value is recorded as 10.5%.

For the compound `Cc1csc(SCC(=O)NC2CCCCC2)n1`, the “hERG current change (%, negative = inhibition) at 1uM” value was found to be 3.4%. As to `O=C(NCc1ccco1)c1ccccc1-c1nc(-c2ccccc2)no1`, the “hERG current change (%, negative = inhibition) at 1uM” value is given as -1.04%.

With `Nc1nc(N)nc(-c2ccccc2-c2nc(N)nc(N)n2)n1`, the “hERG current change (%, negative = inhibition) at 1uM” value is reported as 7.34%. For `O=C(O)c1cccc(COCC(F)(F)C(F)F)c1`, the “hERG current change (%, negative = inhibition) at 1uM” value amounted to 5.45%. Regarding `COc1cc(CNC(=O)OCC(C)C)cc(OC)c1OC`, the “hERG current change (%, negative = inhibition) at 1uM” value is listed as 6.25%. Then `O=C(COc1ccc2ccc(=O)oc2c1)NC1CCCC1`, with 10.7%; and `O=C(Nc1c(C(=O)Nc2cccc(F)c2)oc2ccccc12)c1ccc2c(c1)OCO2`, with 0.361%; and `CCOC(=O)c1sc(NC(=O)CNC(=O)Cn2cnc3sc(C)c(C)c3c2=O)nc1C`, with 9.75%. As to `Cc1nc(CCNC(=O)c2cccs2)cs1`, the “hERG current change (%, negative = inhibition) at 1uM” value stood at 4.05%. Regarding `O=c1c(-c2ccc(O)cc2O)coc2cc(O)cc(O)c12`, the “hERG current change (%, negative = inhibition) at 1uM” value is -7.47%.

For the compound `Cc1ccc(CN(C)C(=O)c2cccc(S(=O)(=O)N3CCN(Cc4ccccc4)CC3)c2)o1`, the “hERG current change (%, negative = inhibition) at 1uM” value was found to be 4.88%. As for `COC(=O)c1cc(C(=O)OCC(=O)N2c3ccccc3NC(=O)C2(C)C)cc([N+](=O)[O-])c1`, the “hERG current change (%, negative = inhibition) at 1uM” value came out at 1.25%. On to `Cc1ccccc1Cn1nnc(-c2ccc3c(c2)OCO3)n1`, for which the “hERG current change (%, negative = inhibition) at 1uM” value was 11.5%. Regarding `COC(=O)c1c(NC(=O)Cc2cccs2)sc(C(=O)NC2CCCCC2)c1C`, the “hERG current change (%, negative = inhibition) at 1uM” value was 9.85%.

On to `C=CCC1CCCCC12NC(=O)NC2=O` (stereo not drawn), for which the “hERG current change (%, negative = inhibition) at 1uM” value amounted to 3.87%. For `CCOC(=O)c1nnn(-c2nonc2N)c1-c1ccc(OC)cc1`, the “hERG current change (%, negative = inhibition) at 1uM” value turned out to be 10.2%. Consider `O=C(CCNS(=O)(=O)c1ccccc1C(F)(F)F)NCC(c1ccco1)N1CCCCC1` (stereo not drawn), for which the “hERG current change (%, negative = inhibition) at 1uM” value amounted to 5.62%. Regarding `Clc1ccc(-c2nnc(-c3cccc4ccccc34)o2)cc1Cl`, the “hERG current change (%, negative = inhibition) at 1uM” value amounted to 14.4%. Take `C=C(C)CSc1nncn1/N=C/c1ccc(OC)cc1`: the “hERG current change (%, negative = inhibition) at 1uM” value is listed as 13%. As to `COc1ccc(CNC(=O)COC(=O)/C=C/c2cccc(Br)c2)cc1OC`, the “hERG current change (%, negative = inhibition) at 1uM” value is 14.9%. Take `COc1cccc(NC(=O)CSc2nnnn2C2CCCC2)c1`: the “hERG current change (%, negative = inhibition) at 1uM” value is 3.66%. For the compound `CC(C)CC1NC(=S)N(C2CCCCC2)C1=O` (stereo not drawn), the “hERG current change (%, negative = inhibition) at 1uM” value was found to be 4.7%. The value for `O=C(O)C1CCCCC1C(=O)NCCCn1ccnc1` (stereo not drawn) was 3.61%; that for `Cc1cccc(C(=O)N2CCC(N3CCC(C(=O)N4CCOCC4)CC3)CC2)c1` was 10.6%. Then `COc1ccc(C(=O)COc2ccc3ccc(=O)oc3c2)cc1`, with 10.1%. For the compound `CCNCC(=O)N1c2ccccc2CCc2ccc(NC(C)=O)cc21`, the “hERG current change (%, negative = inhibition) at 1uM” value is recorded as 27.5%. Take `O=c1c2ccccc2ncn1CCCSc1ccccc1`: the “hERG current change (%, negative = inhibition) at 1uM” value is 5.35%. For `O=C(NCCS(=O)(=O)N1CCN(c2ccc(F)cc2)CC1)c1ccc2c(c1)OCO2`, the “hERG current change (%, negative = inhibition) at 1uM” value is 3.21%. Turning to `COc1ccc(CN(C)C2CCCCC2)cc1`, the “hERG current change (%, negative = inhibition) at 1uM” value is reported as -3.86%.

As to `COc1ccc(N2C(=O)CC(Sc3n[nH]c(-c4ccccc4)n3)C2=O)cc1` (stereo not drawn), the “hERG current change (%, negative = inhibition) at 1uM” value turned out to be 3.53%. In the case of `CCOC(=O)c1c(NC(=O)COC(=O)CCOc2ccc(OCC)cc2)sc(C(=O)N(C)C)c1C`, the “hERG current change (%, negative = inhibition) at 1uM” value came out at 15.4%. Turning to `CCOc1ccc(N(CC(=O)NCCc2ccccc2)C(=O)c2csnn2)cc1`, the “hERG current change (%, negative = inhibition) at 1uM” value was -5.46%. Then `COCC(CN1CCN(C2=NS(=O)(=O)c3ccccc32)CC1)OC(=O)c1ccc(OC)cc1` (stereo not drawn), with 7.07%.

`O=C(CNC(=O)c1cccs1)N/N=C/c1c[nH]c2ccccc12`: the “hERG current change (%, negative = inhibition) at 1uM” value came out at 6.05%. With `Cc1cc(C(=O)N2CCN(c3ccc([N+](=O)[O-])cc3)CC2)c(C)o1`, the “hERG current change (%, negative = inhibition) at 1uM” value is -35.1%. For the compound `Cc1ccc(-c2c(C(=O)N/N=C/C3CC=CCC3)nnn2-c2nonc2N)cc1` (stereo not drawn), the “hERG current change (%, negative = inhibition) at 1uM” value is listed as 16.4%. Turning to `Cc1cc(=O)oc2cc(OCc3ccc(C(=O)OCC(=O)N(C)C4CCS(=O)(=O)C4)cc3)ccc12` (stereo not drawn), the “hERG current change (%, negative = inhibition) at 1uM” value came out at 11.6%. Then `Cc1cc(C)c2oc(-c3cccc(NC(=O)c4ccc(F)cc4)c3)nc2c1`, with 2.68%; and `CCOC(=O)N1CCC(NC(=O)CS(=O)(=O)Cc2nc(-c3ccccc3C)oc2C)CC1`, with 4.51%; and `Fc1ccc(CNc2ccc(N3CCN(Cc4ccccc4)CC3)cc2)cc1`, with 5.52%.

In the case of `O=C(O)c1ccc(NS(=O)(=O)c2cc(C(=O)O)ccc2Br)cc1`, the “hERG current change (%, negative = inhibition) at 1uM” value is given as 13.3%. Consider `Cc1ccc(-n2nc3ccc(NC(=O)c4cccc([N+](=O)[O-])c4C)cc3n2)cc1`, for which the “hERG current change (%, negative = inhibition) at 1uM” value is recorded as 14.3%.

For `Cc1ccc(NC(=O)N2CCOCC2)c(C)c1`, the “hERG current change (%, negative = inhibition) at 1uM” value worked out at 14.4%. As to `O=C(COC(=O)/C=C/c1ccc(S(=O)(=O)N2CCCCCC2)cc1)NCc1ccccc1Cl`, the “hERG current change (%, negative = inhibition) at 1uM” value is on record as 12.1%. `Cc1c(NC(=O)COc2ccccc2Cl)c(=O)n(-c2ccccc2)n1C`: the “hERG current change (%, negative = inhibition) at 1uM” value amounted to 5.08%. With `CC(CC(=O)O)CC(=O)N1CCN(S(=O)(=O)c2cccs2)CC1` (stereo not drawn), the “hERG current change (%, negative = inhibition) at 1uM” value was -4.98%. Take `CSc1ccc(CN2CCCC(CO)(Cc3ccccc3)C2)cc1` (stereo not drawn): the “hERG current change (%, negative = inhibition) at 1uM” value was -10.5%. The value for `CCC(C)NC(=O)COC(=O)c1ccccc1OCC(=O)Nc1ccc(Br)cc1` (stereo not drawn) was 8.27%.

For the compound `CCOP(=O)(OCC)C(NC(=O)c1ccccc1C)C(Cl)(Cl)Cl` (stereo not drawn), the “hERG current change (%, negative = inhibition) at 1uM” value turned out to be 8.85%. Turning to `Cc1ccc2nc3sc(C(=O)NCc4ccco4)c(N)c3cc2c1`, the “hERG current change (%, negative = inhibition) at 1uM” value came out at 5.32%.

With `Cc1nn(-c2ccccc2)c(C)c1/C=N/N1CCN(c2ccccn2)CC1`, the “hERG current change (%, negative = inhibition) at 1uM” value stood at 13.8%.

Consider `Cc1c(C(=O)c2ccc(Cl)c(Cl)c2)cnc2cc3c(cc12)OCO3`, for which the “hERG current change (%, negative = inhibition) at 1uM” value is listed as 11.7%.

As for `Cc1ccc(-n2nnnc2SCn2nnc3ccccc3c2=O)c(C)c1`, the “hERG current change (%, negative = inhibition) at 1uM” value turned out to be 2.92%.

Turning to `CC(C)COP(=O)(c1ccc(N(C)C)cc1)C(O)c1ccc(Br)cc1` (stereo not drawn), the “hERG current change (%, negative = inhibition) at 1uM” value is reported as 17.1%. Regarding `COc1ccc(C(CC(=O)N2CCCCC2)C(C)C)cc1` (stereo not drawn), the “hERG current change (%, negative = inhibition) at 1uM” value was determined as 32.2%. For the compound `Cc1ccc(NC(=O)COC(=O)C2CCC(=O)N2)c([N+](=O)[O-])c1` (stereo not drawn), the “hERG current change (%, negative = inhibition) at 1uM” value was -2.2%.
